Some of the results follow.

This assay deals with PfSIP2 AP2 domain 1 (GST-tagged). The assay can be described thus: gcPBM binding intensity (ln(normalized median fluorescence intensity)); higher = stronger DNA binding. In outline: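 For binding intensity, the highest Masliner-normalised natural-log median intensity across replicate spots of either probe orientation was taken. Protein bound to the array was stained with Alexa488 anti-GST antibody and scanned at 488 nm. The protein, GST-tagged P. falciparum DNA-binding domains from E. coli at about 25 μg on average, had been applied for 1 h to an Agilent 4 × 180k array of primer-extended double-stranded 36-bp intergenic genomic probes and negative controls.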
In the case of “CGAAGGTTTGGCCATGCATGTTATAAGAATATATGT [TGCATGCA_site441]”, the “gcPBM binding intensity (ln)” value turned out to be 6.87. On to “TCATTTCAATACACAAGTACGTATATGGTTATATTG [XGTACX_site6021]”, for which the “gcPBM binding intensity (ln)” value was 6.99.

Consider “AATATAAAATAATGCACACATAAACAAAAAATCAAA [CACACA_site1371]”, for which the “gcPBM binding intensity (ln)” value came to 7.43. As for “TTTCCAAATTGTTGACGGACACTCACGAATAGTTAT [XGTACX_site5720]”, the “gcPBM binding intensity (ln)” value came out at 6.92. Turning to “CATATGTATATGACTACACACAAGGGTGTACATATA [CACACA_site1164]”, the “gcPBM binding intensity (ln)” value was determined as 6.86. For “ACATGAAGATATTTTTGTCCGTACAAATTCATATGA [XGTACX_site1837]”, the “gcPBM binding intensity (ln)” value was determined as 6.93. Turning to “AGTATATCAAAATACATACACACATTTGTATATACA [CACACA_site2697]”, the “gcPBM binding intensity (ln)” value stood at 6.96. Consider “TACGTTATGTTGAATAGTACAATTTGGTGAACAGGT [XGTACX_site1729]”, for which the “gcPBM binding intensity (ln)” value amounted to 7.51. As for “GTCCTCATCCACTATGCACACAAAAAAGAAATACAC [CACACA_site9131]”, the “gcPBM binding intensity (ln)” value turned out to be 8.48. Then “TTTTTTTTTTTTTTTTGTACACAAATTTATTGTCTA [XGTACX_site2680]”, with 7.01. For the sequence “TTTACATCCAAAAACTGTACACTTATTTTATAATTC [XGTACX_site5332]”, the “gcPBM binding intensity (ln)” value came out at 7.36. “ATATATATAATATGTAGTACTTTCCTCTCAAATCAT [XGTACX_site7766]”: the “gcPBM binding intensity (ln)” value worked out at 7.42. Then “ATCAAAAATATAAAAAATATAAACAATTTATTATCA [CACACA_negctrl_site768]”, with 6.65. For the sequence “GAATCATATTTAAACACACATACATATATATATATA [CACACA_site3352]”, the “gcPBM binding intensity (ln)” value came out at 8.82.

In the case of “AATAAGTAACAAAATACACACATATATATAATTATA [CACACA_site1837]”, the “gcPBM binding intensity (ln)” value amounted to 6.93.

On to “TTCATTATTATTAACATACACACGTGTTATATACAC [CACACA_site4112]”, for which the “gcPBM binding intensity (ln)” value was found to be 7.11. As for “TTTTTACTATAATTAAAATTAACAAAAGAAAATGAT [GTGCAC_negctrl_site52]”, the “gcPBM binding intensity (ln)” value stood at 7.15. Turning to “AAAAAATACAAGAAATGTACTCAAGCATATATTAAT [XGTACX_site3325]”, the “gcPBM binding intensity (ln)” value was determined as 6.92. Take “TTCATTTTTTAAGCATCACACACGAAAGAACAAAGT [CACACA_site1122]”: the “gcPBM binding intensity (ln)” value was found to be 7.69. Turning to “TTTAATAATATAATGTGTACTTAAAAATTTATATAT [XGTACX_site5821]”, the “gcPBM binding intensity (ln)” value is 7.23. Then “TCATAAATTAATAATACATGCATAATATTAAAATGT [TGCATGCA_site5]”, with 6.94.

Regarding “AAAAATATATAAGAGAGTACATAAAATAAATTAATT [XGTACX_site1534]”, the “gcPBM binding intensity (ln)” value worked out at 6.87. For “TTTTTTTTTCCCGTAAATATTGAGACAACCATAATG [CACACA_negctrl_site41]”, the “gcPBM binding intensity (ln)” value turned out to be 7.1. Then “TATTTTTATTTAGGACGTACAAAAATAAATCATATT [XGTACX_site1448]”, with 7.21; and “TTAAAAATATATATAACACACACATAATATATATAT [CACACA_site8811]”, with 8.54.

With “TATAAATATTACGGTAGTACTATACATATATATAAT [XGTACX_site7442]”, the “gcPBM binding intensity (ln)” value amounted to 7.08. For “TTAGAAACATTGAAAGCATGCAATATTACTTTATAC [TGCATGCA_site522]” the value was 6.96; for “TCCTTATATTTGCACACACACACAAGAAAATGAAAA [CACACA_site6613]”, 8.3.

With “CATATAAAAAGACACACACACACATATATATATATA [CACACA_site940]”, the “gcPBM binding intensity (ln)” value was 9.82. For “ATAAAAAACTCAGAGCGTACATAATTTTTTCTATTT [XGTACX_site2803]” the value was 7.24.

As to “TAACCATACATACATACACACACACCCACATATATA [CACACA_site8951]”, the “gcPBM binding intensity (ln)” value was determined as 7.2. Then “TATATATTCAAATGTGCATGTAAAAAAAAAAAAAAG [TGCATGCA_site126]”, with 7.36; and CAGGAGAGTAAAAGAGTGCGAATTATTATTTTGGAG, with 7.88. Then “GGCATATATATATGCACACATACATAAATACATGTG [CACACA_site5999]”, with 7.5; and “TCCCTAGTATACCTTAGTACATATATTATTTTGCAC [XGTACX_site2174]”, with 9.21.

As for “AGACATTAATGAAGGTGTACATATATTTGACAGAAT [XGTACX_site655]”, the “gcPBM binding intensity (ln)” value turned out to be 7.23. For “TATATAATATAATTGACATGCAACCATTTTCGTGAA [TGCATGCA_site458]” the value was 6.84; for “TCATTCATATGTTACACACACACACGCACATAAAAA [CACACA_site7514]”, 7.46; for “AAGTTGGAAAGGTTATGTACTTATTTTTTAAAATAA [XGTACX_site204]”, 6.91. Regarding “ATCTATATCTATAATACACACTAAAGTAACAGAATA [CACACA_site7370]”, the “gcPBM binding intensity (ln)” value is 7.14. For the sequence “GTATCTCATTATTCGTGTACTAAACACATAAAAATA [XGTACX_site2262]”, the “gcPBM binding intensity (ln)” value stood at 7.84.

As to “GATTTACAACACGAACGTACAGAACAAAAAGGAAAA [XGTACX_site6501]”, the “gcPBM binding intensity (ln)” value was 7.19. As for “TGTTTAAAGGAAAAGGAGTAGTCTATTATATTATCT [CACACA_negctrl_site858]”, the “gcPBM binding intensity (ln)” value was found to be 6.78.

Consider “AATGTAAAAGTAAACACACACATATATATATACATA [CACACA_site2484]”, for which the “gcPBM binding intensity (ln)” value was 6.85. “TATAAAAATAAAAAAAGTACACATAAAAATATATAT [XGTACX_site5189]”: the “gcPBM binding intensity (ln)” value was found to be 7.22.

For the origin of these results see the supplement of paper PMC11417369.
